Reference: US8268865B2, “Quaternary alkyl ammonium bacterial efflux pump inhibitors and therapeutic uses thereof” (Rempex Pharmaceuticals, Inc., priority 2007, dated 2012)
The name of at least one read-out is uncertain.

Test system: P. aeruginosa strain PAM1723 overexpressing MexAB-OprM
Assay: Checkerboard assay: potentiation of in vitro antibacterial activity of levofloxacin by efflux pump inhibitors
Format: cell-based
Details: PAM1723, MHB, 20 h at 35° C.; for MPC8: lowest inhibitor concentration giving antibacterial activity with levofloxacin at 1/8 of its MIC; for MPC32: lowest inhibitor concentration giving antibacterial activity with levofloxacin at 1/32 of its MIC
Protocol: EPI activity was recorded as concentration of an EPI compound that is necessary to increase susceptibility to levofloxacin of the strain of P. aeruginosa, PAM1723, overexpressing the MexAB-OprM efflux pump eight-fold. The levofloxacin potentiating activity of the test compounds was assessed by the checkerboard assay (Antimicrobial Combinations, Antibiotics in Laboratory Medicine, Ed. Victor Lorian, M.D., Fourth edition, 1996, pp 333-338, which is incorporated herein by reference in its entirety) using a broth microdilution method performed as recommended by the NCCLS (National Committee for Clinical Laboratory Standards (NCCLS), 1997, Methods for Dilution of Antimicrobial Susceptibility Tests for Bacteria That Grow Aerobically, Fourth Edition; Approved Standard. NCCLS Document M7-A4, Vol 17 No. 2, which is incorporated herein by reference in its entirety). In this assay, multiple dilutions of two drugs, namely an EPI and levofloxacin, were tested, alone and in combination, at concentrations equal to, above and below their respective minimal inhibitory concentrations (MICs). All EPI compounds were readily soluble in water and stock solutions were prepared at a final concentration of 10 mg/ml. Stock solutions were further diluted, according to the needs of the particular assay, in Mueller Hinton Broth (MHB). Stock solution was stored at −80° C.
The checkerboard assay was performed in microtiter plates. Levofloxacin was diluted in the x-axis, each column containing a single concentration of levofloxacin. EPIs were diluted in the y-axis, each row containing a single concentration of an EPI. The result of these manipulations was that each well of the microtiter plate contained a unique combination of concentrations of the two agents. The assay was performed in MHB with a final bacterial inoculum of 5×105 CFU/ml (from an early-log phase culture). Microtiter plates were incubated during 20 h at 35° C. and were read using a microtiterplate reader (Molecular Devices) at 650 nm as well as visual observation using a microtiter plate-reading mirror.
In the experiment depicted in Table 1, potentiating activities of selected inhibitors are reported as Minimum Potentiating Concentration MPC8 values (or MPC32) which correspond to the lowest concentration of the inhibitor required to achieve antibacterial activity in combination with the concentration of levofloxacin equal to ⅛ (or 1/32) of the levofloxacin concentration required to achieve the same antibacterial effect alone (MIC of levofloxacin).

Row | SMILES | MPC8 | MPC32
1 | C[N+](CCN)(CCN)CCC[C@H](N)C(=O)N[C@@H](Cc1ccc(C(F)(F)F)cc1)C(=O)Nc1ccc2ncccc2c1.Cl.Cl.Cl [Compound 47, 6-[(2S)-2-[(4S)-1-N,1-N-bis(2-azaniumylethyl)-4-formamido-1-N-methylbutane-1,4-bis(aminium)]-3-[4-(trifluoromethyl)phenyl]propanamido]quinolin-1-ium pentachloride] | 0.156 µg/mL | 0.312 µg/mL
2 | C[N+](CCN)(CCN)CCC[C@H](N)C(=O)N[C@H](Cc1ccc(C(F)(F)F)cc1)C(=O)Nc1cc2ccccc2[n+](Cc2ccc(C(F)(F)F)cc2)c1 [Compound 54, 3-[(2R)-2-[(4S)-1-N,1-N-bis(2-azaniumylethyl)-4-formamido-1-N-methylbutane-1,4-bis(aminium)]-3-[4-(trifluoromethyl)phenyl]propanamido]-1-{(trifluoromethyl)phenyl]methyl}quinolin-1-ium pentachloride] | 0.312 µg/mL | >10 µg/mL
3 | C[N+](CCN)(CCN)CCC[C@H](N)C(=O)N[C@@H](Cc1ccccc1)C(=O)Nc1ccc2ccccc2c1.Cl [Compound 57, [(4S)-4-azaniumyl-4-{[(1S)-1-[(naphthalen-2-yl)carbamoyl]-2-phenylethyl]carbamoyl}butyl]bis(2-azaniumylethyl)methylazanium tetrachloride] | 0.625 µg/mL | 1.25 µg/mL
4 | Cl.Cl.Cl.Cl.Cn1c(=O)c(NC(=O)[C@@H](CCc2ccccc2)NC(=O)[C@@H](N)CCC[N+](C)(CCN)CCN)cc2ccccc21 [Compound 59, [(4S)-4-azaniumyl-4-{[(1R)-1-[(1-methyl-2-oxo-1,2-dihydroquinolin-3-yl)carbamoyl]-3-phenylpropyl]carbamoyl}butyl]bis(2-azaniumylethyl)methylazanium tetrachloride] | >10 µg/mL | >10 µg/mL
5 | C[N+](CCN)(CCN)CCC[C@H](N)C(=O)N[C@H](CCc1ccccc1)C(=O)Nc1cc2ccccc2[nH]c1=O.Cl.Cl.Cl.Cl [Compound 61, [(4S)-4-azaniumyl-4-{[(1R)-1-[(2-oxo-1,2-dihydroquinolin-3-yl)carbamoyl]-3-phenylpropyl]carbamoyl}butyl]bis(2-azaniumylethyl)methylazanium tetrachloride] | 10 µg/mL | >10 µg/mL
6 | C[N+](CCN)(CCN)CCC[C@H](N)C(=O)N[C@H](CCc1ccccc1)C(=O)Nc1nc2ccccc2s1.Cl.Cl.Cl.Cl [Compound 63, [(4S)-4-azaniumyl-4-{[(1R)-1-[(1,3-benzothiazol-2-yl)carbamoyl]-3-phenylpropyl]carbamoyl}butyl]bis(2-azaniumylethyl)methylazanium tetrachloride] | 2.5 µg/mL | >10 µg/mL
7 | C[N+](CCN)(CCN)CCC[C@H](N)C(=O)N[C@@H](CCc1ccccc1)C(=O)Nc1ccc(F)c(F)c1F.Cl.Cl [Compound 67, [(4S)-4-azaniumyl-4-{[(1S)-3-phenyl-1-[(2,3,4-trifluorophenyl)carbamoyl]propyl]carbamoyl}butyl]bis(2-azaniumylethyl)methylazanium tetrachloride] | >10 µg/mL | >10 µg/mL
8 | C[N+](CCN)(CCC[C@H](N)C(=O)N[C@@H](Cc1ccc(C(F)(F)F)cc1)C(=O)Nc1cnc2ccccc2c1)CCNC(=N)N (stereo partly drawn) [Compound 75, 3-[(2S)-2-[(45)-1-N-(2-azaniumylethyl)-1-N-{2-[(azaniumylmethanimidoyl)amino]ethyl}-4-formamido-1-N-methylbutane-1,4-bis(aminium)]-3-[4-(trifluoromethyl)phenyl]propanamido]quinolin-1-ium pentachloride] | >10 µg/mL | >10 µg/mL
9 | C[N+](C)(CCN)CCC[C@H](N)C(=O)N[C@@H](Cc1ccc(C(F)(F)F)cc1)C(=O)Nc1cnc2ccccc2c1.Cl.Cl.Cl.[Cl-] [Compound 134, 3-[(2S)-2-[(4S)-1-N-(2-azaniumylethyl)-4-formamido-1-N,1-N-dimethylbutane-1,4-bis(aminium)]-3-[4-(trifluoromethyl)phenyl]propanamido]quinolin-1-ium tetrachloride] | 2.5 µg/mL | >10 µg/mL
